Results are given in words; binding and its absence hold for the method and conditions named. Binding seen in cells or lysates may run through a third protein. Some results given as binding are weak or reduced against the parent protein; the word gives no strength. For part of these data: Sequences can lack the tags named with a protein. Each block holds one substance with its values, some of them ahead of it.
Columns and labels:
GST-KRT14-Rod (human) = GST-KRT14-Rod (human) (UniProt P02533); experiment: pull-down; bead-bound GST proteins (Glutathione Sepharose 4B) incubated with 500 µg lysate of HEK293T cells overexpressing HA-eIF4H; 50 mM Tris-HCl pH 7.4, 150 mM NaCl, 1 mM EDTA, 0.5% NP-40, overnight 4 °C; anti-HA blot; only the target purified
GST-KRT14-Tail (human) = biological target: T1, GST-KRT14-Tail (human) (UniProt P02533); experiment: as above
T1 sequence: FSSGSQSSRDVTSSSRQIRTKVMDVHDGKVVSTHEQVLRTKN

The chains behind the UniProt entries cited, without tags or fusion partners.
UniProt P06730: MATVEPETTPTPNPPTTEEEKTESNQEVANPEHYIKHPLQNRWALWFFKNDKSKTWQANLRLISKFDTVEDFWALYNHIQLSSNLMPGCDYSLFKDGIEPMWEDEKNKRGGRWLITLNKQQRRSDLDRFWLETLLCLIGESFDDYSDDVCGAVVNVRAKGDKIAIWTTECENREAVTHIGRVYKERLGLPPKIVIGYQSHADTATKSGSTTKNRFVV

GST-KRT14-Head (human) = GST-KRT14-Head (human) (UniProt P02533); experiment: as above
GST-KRT14-FL (human) = GST-KRT14-FL (human) (UniProt P02533); experiment: as above
[1] = biological target: Eukaryotic translation initiation factor 4H (eIF4H), endogenous (human (endogenous in 5637-CR/T24-CR)) (UniProt Q15056); experiment: co-IP; eIF4H-IP from resistant cells, blots for eIF4G and eIF4E; cells with control, KRT14 OE (KRT14-WT) or KRT14-MUT (ΔHead)
[2] = biological target: Keratin 14 (KRT14), endogenous (human (endogenous in 5637-CR/T24-CR)) (UniProt P02533); experiment: co-IP; reciprocal Co-IP of endogenous proteins (anti-KRT14, anti-eIF4H) from lysate of resistant BLCA cells; IP Lysis Buffer, overnight 4 °C, Protein A/G magnetic beads
Flag-KRT14-ΔHead (human) = Flag-KRT14-ΔHead (human) (UniProt P02533); experiment: co-IP; Co-IP of Flag-KRT14-ΔHead with endogenous eIF4H; cells not named
[3] = biological target: Flag-KRT14-FL (full-length human KRT14 with C-terminal 3×Flag) (human) (UniProt P02533); experiment: co-IP; reciprocal Co-IP of co-expressed Flag-KRT14 and HA-eIF4H (anti-Flag M2, anti-HA); cells not given
[4] = biological target: Flag-KRT14-FL (full-length human KRT14 with C-terminal 3×Flag) (human) (UniProt P02533); experiment: co-IP; Co-IP of HA-eIF4H with Flag-KRT14-FL, -Head, -Rod, -Tail in resistant BLCA cells
Flag-KRT14-Head (human) = Flag-KRT14-Head (human) (UniProt P02533); experiment: as above
Flag-KRT14-Rod (human) = Flag-KRT14-Rod (human) (UniProt P02533); experiment: as above
Flag-KRT14-Tail (human) = biological target: T2, Flag-KRT14-Tail (human) (UniProt P02533); experiment: as above
T2 sequence: T1 sequence

binding (GST-KRT14-Rod (human)): no binding
binding (GST-KRT14-Tail (human)): no binding
binding (GST-KRT14-Head (human)): binds
binding (GST-KRT14-FL (human)): binds
Substance: HA-eIF4H (overexpressed in HEK293T, lysate for GST pull-down) (from UniProt Q15056 1-248)

binding [1]: binds
Substance: eIF4E, endogenous (from UniProt P06730 1-217)

binding [2]: binds
binding (Flag-KRT14-ΔHead (human)): no binding
Substance: Eukaryotic translation initiation factor 4H (eIF4H), endogenous (from UniProt Q15056 1-248)

binding [3]: binds
binding [4]: binds
binding (Flag-KRT14-Head (human)): binds
binding (Flag-KRT14-Rod (human)): no binding
binding (Flag-KRT14-Tail (human)): no binding
Substance: HA-eIF4H (co-expressed in cells for Co-IP) (from UniProt Q15056 1-248)

From article PMC12847778
